Screen size: about 52,000 compounds; about 1,700 (3.3%) were called active. No stated cut-off is given here; in the data, active means survival mostly below about 52% (no sharp cut-off); inactive means mostly above about 56%. This is one part of the list.

We go through 24 compounds from PubChem BioAssay AID463173 (ICCB-Longwood Screening Facility, Harvard Medical School, 2010).

This assay has as its system Wild type. Put plainly: S. aureus survival, RN4220 and DeltatarO strains – OD600, teichoic acid synthesis inhibitors, primary screen (AID 463173). The settings on record: S. aureus RN4220 wild type/DeltatarO growth, OD600, 18 h, hits give low values, screened at 18.75 µg/mL (by protocol).
For the compound `CCCCNC(=O)CSC1=Nc2ccccc2C2=NC(CCC(=O)NCc3ccccc3OC)C(=O)N12` (centres undefined), the survival is active: -2%.

As to `COc1ccc(NC(=O)Cn2c(=O)n(-c3ccc(C)c(C)c3)c(=O)c3c4c(sc32)CCCCC4)cc1Cl`, the survival is inactive: 94%.

As to `CCc1ccc(NC(=O)CSc2cn(CC(=O)N3CCOCC3)c3ccccc23)cc1`, the survival was inactive: 98%.

For `Cn1c(C(=O)N2CCCC(C(=O)N3CCN(c4ccccc4)CC3)C2)cc2sccc21` (centres undefined), the survival was inactive: 79%.

In the case of `COc1ccc(CCNC(=O)c2cc(=O)c3c(C)cc(C)cc3o2)cc1OC`, the survival is inactive: 82%.

On to `CC(CC(=O)NCc1ccc(Cl)cc1Cl)CC1=NS(=O)(=O)c2ccccc2N1` (centres undefined), for which the survival is inactive: 128%.

Turning to `Cc1ccc(/C=C/c2nc3ccccc3n2S(=O)(=O)c2cccc(Cl)c2)cc1`, the survival is inactive: 73%.

As for `COc1cc2c(cc1OC)n(CC(=O)Nc1ccccc1)c(=O)n1nc(-c3ccccc3)nc21`, the survival was inactive: 77%.

`O=C(CCn1c(=O)c2cccn2c2cccnc21)NCc1ccc(Cl)cc1`: the survival is inactive: 90%.

Take `COC(=O)c1ccc(NC(=O)C(=O)NCCc2sc3nc(-c4ccc(OC)cc4)nn3c2C)cc1`: the survival is inactive: 70%.

Regarding `COc1ccccc1NC(=O)C1=C(C)Nc2c(C(=O)Nc3cccc(C)c3)cnn2C1c1ccccc1C` (centres undefined), the survival was inactive: 69%.

In the case of `CCOC(=O)c1ccc(NC(=O)Cn2cc(C(=O)c3cccs3)c3ccccc32)cc1`, the survival was inactive: 75%.

Consider `Cc1cccc(OC(=O)c2nc(SCc3ccccc3F)ncc2Cl)c1`, for which the survival was inactive: 103%.

Consider `Cc1nc2ccn(Cc3cccs3)c(=O)c2cc1C(=O)NCc1ccc(Cl)cc1`, for which the survival is inactive: 22%.

For the compound `COc1cc2nc(Nc3ccc(C)c(C)c3)nc(N)c2cc1OC`, the survival is inactive: 81%.

Consider `Cc1ccc(Nc2nc3c(S(=O)(=O)c4ccccc4)nnn3c3ccc(Cl)cc23)c(C)c1`, for which the survival was inactive: 153%.

In the case of `CCCN(CCC)CCCNC(=O)c1sc2nc3n(c(=O)c2c1C)CCC3`, the survival was inactive: 86%.

Turning to `Oc1cccc(-c2nc(-c3cccs3)c(-c3cccs3)[nH]2)c1`, the survival is active: 3%.

In the case of `Cc1ccccc1OCCSc1nnc(-c2ccc([N+](=O)[O-])cc2)o1`, the survival is inactive: 111%.

As for `O=C(c1ccc2c(c1)N(Cc1cccc(Cl)c1)C(=O)c1ccccc1S2(=O)=O)N1CCN(Cc2ccccc2)CC1`, the survival is inactive: 83%.

Turning to `CCc1cc2c(cc3c(=O)n(CC(=O)NC(C)C)nc(CC)n32)s1`, the survival was inactive: 71%.

In the case of `COc1ccc(CNC(=O)CSCc2ccc(C)cc2)c(OC)c1`, the survival was inactive: 47%.

On to `COc1ccccc1NC(=O)c1cc2c(n(-c3ccc(C)cc3)c1=O)CC(C)(C)CC2=O`, for which the survival is inactive: 70%.

As to `CCCn1cnc2sc3c(c2c1=O)CCCC3`, the survival was inactive: 107%.
